Source: the supplement of paper PMC9174493
Some of the results follow. Single values of this set are uncertain. Values with irradiation are relative to irradiated vehicle.

Assays:
A549-Dual [1] = test: NF-kB reporter (SEAP) activity, viability-corrected, relative to vehicle (fold change vs vehicle); higher = more activation of STING-IRF / NF-kB immune response reporter; settings: 10 µM
A549-Dual [2] = test: ISRE reporter (Lucia luciferase) activity, viability-corrected, relative to vehicle (fold change vs vehicle); higher = more activation of STING-IRF / NF-kB immune response reporter; settings: 10 µM
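Throughout, for NF-kB reporter (SEAP) activity, viability-corrected, relative to vehicle: viability correction based on the alamar blue assay, with concentrations leaving 10% survival or less dropped.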

| Structure (SMILES) | NF-kB reporter (A549-Dual [1]; irradiation: 8 Gy/4 fr) | NF-kB reporter (A549-Dual [1]; irradiation: none) | ISRE reporter (A549-Dual [2]; irradiation: 8 Gy/4 fr) | ISRE reporter (A549-Dual [2]; irradiation: none) |
| --- | --- | --- | --- | --- |
| O=c1[nH]cnc2c1ncn2C1CCC(CO)O1 (stereo unspecified) [Didanosine] | 0.549 | 0.917 | 0.574 | 0.781 |
| NC(=O)c1ncn(C2OC(CO)C(O)C2O)n1 (stereo unspecified) [Ribavirin] | 0.746 | 1.09 | 0.713 | 0.89 |
| CC(=O)NCCCS(=O)(=O)[O-] [Acamprosate Calcium] | 0.625 | 1.23 | 0.478 | 0.664 |
| Cl.Cl.NCCc1c[nH]cn1 [Histamine 2HCl] | 0.727 | 0.737 | 1.04 | 0.902 |
| CC(=O)OC(C)C[N+](C)(C)C.[Cl-] (stereo unspecified) [Methacholine chloride] | 0.776 | 1.31 | 0.934 | 0.96 |
| CC1CNCCCN1S(=O)(=O)c1cccc2cncc(F)c12.Cl.O.O (stereo unspecified) [Ripasudil (K-115) hydrochloride dihydrate] | 1.97 | 0.884 | 1.57 | 1.04 |
| CCOc1cc(N)c([N+](=O)[O-])cc1C(=O)NC1CCN(CC2CC=CCC2)CC1.O=C(O)C(O)C(O)C(=O)O (stereo unspecified) [Cinitapride Hydrogen Tartrate] | 0.97 | 0.704 | 1.3 | 1.08 |
| CCCCc1nc(Cl)c(CO)n1Cc1ccc(-c2ccccc2-c2nnn[nH]2)cc1 [Losartan] | 0.708 | 0.717 | 0.691 | 0.471 |
| NCC(=O)NCC(=O)O [Glycylglycine] | 1.27 | 0.771 | 1.34 | 1.11 |
| COc1ccc(/C=C/c2cc(OC)cc(=O)o2)cc1 [Yangonin] | 1.09 | 1.02 | 1.09 | 1.03 |
| NC(=O)CC(N)C(=O)O.O (stereo not drawn) [L(+)-Asparagine monohydrate] | 0.719 | 0.768 | 0.798 | 0.753 |
| CC(C)C(=O)c1c(C(C)C)nn2ccccc12 [Ibudilast] | 0.878 | 0.959 | 0.813 | 0.817 |
| COc1ccc(C(=O)CCC(=O)O)c2ccccc12 [Menbutone] | 1.2 | 0.679 | 1.15 | 0.651 |
| O=c1c(-c2ccc(O)cc2)coc2cc(O)ccc12 [Daidzein] | 0.84 | 1.2 | 0.57 | 1.03 |
| C(=C\c1ccccc1)/CN1CCN(C(c2ccccc2)c2ccccc2)CC1 [Cinnarizine] | 0.735 | 1.23 | 0.629 | 0.974 |
| CC(C)CC(NC(=O)C(CCCCN)NC(=O)CNC(=O)C(CC(C)C)NC(=O)C(NC(=O)C1CSSCC(N)C(=O)NC(CO)C(=O)NC(CC(N)=O)C(=O)NC(CC(C)C)C(=O)NC(CO)C(=O)NC(C(C)O)C(=O)N1)C(C)C)C(=O)NC(CO)C(=O)NC(CCC(N)=O)C(=O)NC(CCC(=O)O)C(=O)NC(CC(C)C)C(=O)NC(Cc1cnc[nH]1)C(=O)NC(CCCCN)C(=O)C(=O)C(CC(C)C)NNC(CCC(N)=O)C(=O)NC(C(=O)C(=O)C(Cc1ccc(O)cc1)NN1CCCC1C(=O)NC(CCCNC(=N)N)C(=O)NC(C(=O)NC(CC(N)=O)C(=O)NC(C(=O)NCC(=O)NC(CO)C(=O)NCC(=O)NC(C(=O)N1CCCC1C(N)=O)C(C)O)C(C)O)C(C)O)C(C)O (stereo unspecified) [Salmon Calcitonin Acetate] | 0.845 | 1.34 | 0.902 | 1.11 |
| CCCCC(F)(F)C(=O)CCC1C(O)CC(=O)C1CCCCCCC(=O)O (stereo unspecified) [Lubiprostone] | 0.742 | 1.41 | 0.87 | 1.01 |
| COc1cc(/C=C/C(=O)[O-])ccc1O.[Na+] [Sodium ferulate] | 0.978 | 1.57 | 0.728 | 1.11 |
| CNS(=O)(=O)CCc1ccc2[nH]cc(C3CCN(C)CC3)c2c1.Cl [Naratriptan HCl] | 0.742 | 0.98 | 0.765 | 0.872 |
| CC1(C)SC2C(NC(=O)C(N)c3ccccc3)C(=O)N2C1C(=O)O.O.O.O (stereo unspecified) [Ampicillin Trihydrate] | 0.941 | 0.977 | 1.01 | 0.915 |
| O=c1c(O)c(-c2ccc(O)cc2)oc2cc(O)cc(O)c12 [Kaempferol] | 0.639 | 0.483 | 0.455 | 0.642 |
| Cl.O=c1n(CCCN2CCN(c3cccc(Cl)c3)CC2)nc2ccccn12 [Trazodone HCl] | 0.586 | 0.957 | 0.475 | 0.608 |
| Nc1cccc2c1CN(C1CCC(=O)NC1=O)C2=O (stereo unspecified) [Lenalidomide (CC-5013)] | 0.926 | 0.989 | 1.19 | 1.06 |
| CC12CCC(CC1=O)C2(C)C (stereo not drawn) [(+)-Camphor] | 0.86 | 0.925 | 0.94 | 0.878 |
| O=c1ncn2nc(Sc3ccc(F)cc3F)ccc2c1-c1c(Cl)cccc1Cl | 0.58 | 0.775 | 0.281 | 0.398 |

| Structure (SMILES) | NF-kB reporter (A549-Dual [1]; irradiation: 8 Gy/4 fr) | NF-kB reporter (A549-Dual [1]; irradiation: none) | ISRE reporter (A549-Dual [2]; irradiation: 8 Gy/4 fr) | ISRE reporter (A549-Dual [2]; irradiation: none) |
| --- | --- | --- | --- | --- |
| O=C([O-])CN(CCN(CC(=O)[O-])CC(=O)[O-])CC(=O)[O-].[Ca+2].[Na+].[Na+] [edetate calcium disodium] | 0.776 | 0.579 | 0.893 | 0.587 |
| COCCc1ccc(OCC(O)CNC(C)C)cc1.COCCc1ccc(OCC(O)CNC(C)C)cc1.O=C(O)CCC(=O)O (stereo unspecified) [Metroprolol succinate] | 0.985 | 1.66 | 0.691 | 0.731 |
| CC1=C(/C=C/C(C)=C/C=C/C(C)=C/C=C/C=C(C)/C=C/C=C(C)/C=C/C2=C(C)CCCC2(C)C)C(C)(C)CCC1 [Beta Carotene] | 1.22 | 0.684 | 1.21 | 0.617 |
| CC(C)(Oc1ccc(Cl)cc1)C(=O)OCCOC(=O)c1cccnc1 [Etofibrate] | 0.928 | 0.928 | 0.834 | 0.697 |
| CCCCCCCC/C=C\CCCCCCCC(=O)OC [Methyl Oleate] | 0.637 | 0.597 | 0.562 | 0.366 |
| O=C(O)/C=C/c1ccc(O)c(O)c1 [Caffeic Acid] | 1.02 | 1.01 | 1.06 | 0.935 |
| C#CC1(O)CCC2C3CCC4=CC(=O)CCC4C3CCC21CC (stereo unspecified) [Levonorgestrel] | 0.735 | 0.775 | 0.607 | 0.549 |
| Nc1ccc(S(=O)(=O)Nc2ncccn2)cc1 [Sulfadiazine] | 0.629 | 1.16 | 0.71 | 0.904 |
| O=c1ccc2cc(O)c(O)cc2o1 [Esculetin] | 0.735 | 0.814 | 0.684 | 0.439 |
| C=C1CC/C=C(\C)CCC2C1CC2(C)C (stereo not drawn) [β-Caryophyllene] | 1.22 | 0.751 | 1.3 | 0.853 |
| CNCCCN1c2ccccc2CCc2ccccc21.Cl [Desipramine Hydrochloride] | 0.745 | 1.3 | 0.545 | 0.723 |
| COc1ccc2cc3[n+](cc2c1OC)CCc1cc2c(cc1-3)OCO2 [Berberine] | 0.591 | 1.3 | 0.207 | 0.85 |
| N[C@@H](CCC(=O)O)C(=O)O [(S)-Glutamic acid] | 0.554 | 0.808 | 0.181 | 0.285 |
| C[n+]1cccc(C(=O)O)c1.[Cl-] [Trigonelline Hydrochloride] | 0.687 | 0.684 | 0.606 | 0.52 |
| COCCCN1CCC(NC(=O)c2cc(Cl)c(N)c3c2OCC3)CC1 [Prucalopride] | 0.611 | 1 | 0.604 | 0.619 |
| COc1ccc2[n-]c(S(=O)Cc3ncc(C)c(OC)c3C)nc2c1.COc1ccc2[n-]c(S(=O)Cc3ncc(C)c(OC)c3C)nc2c1.[Mg+2] (stereo unspecified) [NEXIUM (esomeprazole magnesium)] | 0.71 | 0.838 | 0.548 | 0.66 |
| CCC(=O)O.CCC(=O)O.O=C(Nc1cccc(C2=NCCN2)c1)Nc1cccc(C2=NCCN2)c1 [Imidocarb dipropionate] | 0.459 | 0.702 | 0.482 | 0.538 |
| COc1cc2nc(N(C)CCCNC(=O)C3CCCO3)nc(N)c2cc1OC (stereo unspecified) [Alfuzosin] | 0.873 | 1.01 | 1.23 | 1.09 |
| NCC(=O)O [Glycine] | 0.781 | 0.894 | 0.784 | 0.798 |
| CCNC(=O)C1CCCN1C(=O)C(CCCNC(=N)N)NC(=O)C(CC(C)C)NC(=O)C(C)NC(=O)C(Cc1ccc(O)cc1)NC(=O)C(CO)NC(=O)C(Cc1c[nH]c2ccccc12)NC(=O)C(Cc1c[nH]cn1)NC(=O)C1CCC(=O)N1 (stereo unspecified) [Alarelin Acetate] | 1.47 | 0.81 | 1.65 | 0.824 |
| O=C(O)c1cccnc1 [Nicotinic Acid] | 0.946 | 0.847 | 0.939 | 0.877 |
| CC(O)C1C(=O)N2C(C(=O)OCOC(=O)C(C)(C)C)=C(SC3CN(C4=NCCS4)C3)C(C)C12 (stereo unspecified) [Tebipenem Pivoxil] | 0.87 | 1.01 | 0.837 | 0.758 |
| Nc1nc(=O)[nH]cc1F [Flucytosine] | 1.11 | 0.939 | 1.12 | 0.766 |
| COc1c(N2CC3CCCNC3C2)c(F)cc2c(=O)c(C(=O)O)cn(C3CC3)c12.Cl (stereo unspecified) [Moxifloxacin HCl] | 0.812 | 0.972 | 0.744 | 0.904 |
